# The list shows a part of the results. Values were computed here from the reads of four pooled replicates and scatter widely.
# Molecular target: T1, Pho4 (S. cerevisiae) (UniProt P07270)
# T1 sequence: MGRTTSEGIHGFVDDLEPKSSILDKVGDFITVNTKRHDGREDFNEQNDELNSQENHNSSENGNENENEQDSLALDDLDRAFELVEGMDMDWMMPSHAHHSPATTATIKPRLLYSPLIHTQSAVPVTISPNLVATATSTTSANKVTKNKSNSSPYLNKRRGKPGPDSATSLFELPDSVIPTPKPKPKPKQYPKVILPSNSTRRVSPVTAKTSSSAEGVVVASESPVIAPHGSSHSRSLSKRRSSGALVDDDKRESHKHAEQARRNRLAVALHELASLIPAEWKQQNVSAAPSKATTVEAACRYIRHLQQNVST
# Experiment: relative binding free energy (BET-seq); higher = weaker binding
# Settings: reference: library average
row,Sequence,relative binding free energy [kcal/mol]
1,TGTGTCACGTGGATTC,0.16
2,ATTCTCACGTGTGTAT,0.18
3,GTGTACACGTGGAAGA,0.2
4,TGGTTCACGTGCTCGG,0.2
5,CTAATCACGTGGTGGG,0.12
6,TGTTGCACGTGGGACT,-0.16
7,GCGGGCACGTGAGTGT,0.18
8,TGCGTCACGTGATTCG,0.2
9,CGGGGCACGTGATTAG,-0.04
10,GGTGCCACGTGAGTTA,0.16
11,GAGTTCACGTGCATGT,0.41
12,TTTTGCACGTGGATGC,0.13
13,TAGTGCACGTGGGAAT,-0.04
14,AAGTTCACGTGTGTCG,0.26
15,GTACACACGTGGGTTT,-0.13
16,GTTCGCACGTGTTGAG,-0.08
17,AATCGCACGTGTGTGG,0
18,TTTTTCACGTGCTGAA,0.21
19,CTTCGCACGTGGTAGG,-0.17
20,GGCGACACGTGTGGAG,0.16
21,TCTTTCACGTGTTATC,0.3
22,TGTGGCACGTGTGAAG,0.04
23,TGGTGCACGTGGTGAT,-0.12

row,Sequence,relative binding free energy [kcal/mol]
1,TTTTTCACGTGAGGTT,0.32
2,TTGTTCACGTGTGATA,0.27
3,TTAAGCACGTGAAGGA,0.29
4,AGTGTCACGTGGGCAC,-0.06
5,GGGAGCACGTGGAATA,0.11
6,TATTACACGTGTTTCT,0.22
7,GGTGCCACGTGCGTGT,-0.01
8,GGACGCACGTGTTGTA,-0.01
9,GTATGCACGTGAAGGC,0.4
10,GGTGTCACGTGAAGTT,0.31
11,TTGGGCACGTGCGTGT,-0.24
12,CAGTGCACGTGGTGTA,-0.06
13,GAGTTCACGTGCGGTT,0.25
14,AGCTTCACGTGTCTGT,0.38
15,CGGTGCACGTGAGTAA,0.19
16,AACTGCACGTGCGGGT,-0.06
17,GGGGGCACGTGCGTGG,-0.23
18,TCTTACACGTGTTTGT,0.11
19,CGTTACACGTGCGGGA,0.07
20,AGTTACACGTGGATTG,0.09
21,TTGGTCACGTGTGTTA,0.17
22,ATTTGCACGTGGTCGA,0.03
23,ATTTACACGTGAAGGG,0.38

row,Sequence,relative binding free energy [kcal/mol]
1,GCGATCACGTGAGGGG,0.33
2,GTAGGCACGTGTGGCC,-0.13
3,GGGATCACGTGTATCG,0.17
4,TGTACCACGTGGTTGA,-0.14
5,TAAAACACGTGTTTGG,-0.21
6,TGGCGCACGTGGGGCG,-0.21
7,AGCTGCACGTGTAGTG,-0.09
8,TGTTGCACGTGTGTGT,0.11
9,GAGGACACGTGTGTAT,0.23
10,GGGGTCACGTGTTACG,0.11
11,ACGTTCACGTGCTGGG,0.15
12,TTCAGCACGTGTATGT,-0.18
13,GGCATCACGTGTTAAG,0.25
14,GTGCACACGTGGGTAA,-0.01
15,AGGCACACGTGGTGGG,-0.04
16,TGGCGCACGTGGGGCA,-0.34
17,ATGAACACGTGATATG,0.16
18,TTTAGCACGTGCTAGT,-0.17
19,GATTGCACGTGAGCGG,0.26
20,AAAGACACGTGCGTGT,0.05
21,GGGGCCACGTGAGTGG,0.05
22,TGTACCACGTGTAGGC,0.11
23,GCTTTCACGTGATTAT,0.29

row,Sequence,relative binding free energy [kcal/mol]
1,GGTGTCACGTGGAACA,0.11
2,GGAATCACGTGTCAGG,0.28
3,TGTCCCACGTGGAGGT,-0.15
4,TTCAGCACGTGTGGCG,-0.04
5,TTATGCACGTGTTGCA,-0.1
6,AAGGACACGTGCAGGG,0.04
7,GAAGACACGTGTTTTG,0.12
8,GGTGTCACGTGCCTGT,0.03
9,TGGCTCACGTGAGGTA,0.3
10,TGTGGCACGTGTTCGA,0.02
11,CCGGTCACGTGCGGGG,-0.11
12,GGGGACACGTGAAGTA,0.26
13,GTCTGCACGTGATAGT,0.16
14,TGGGGCACGTGTTATA,-0.02
15,ATTGGCACGTGGAAGT,-0.04
16,ATGGTCACGTGGTGTA,0.05
17,TTCGGCACGTGGGGTA,-0.21
18,TGGAACACGTGAAAGG,0.32
19,ATCAACACGTGTGGGT,0.06
20,AGGTTCACGTGTGTGT,0.32
21,TTAGCCACGTGAGTAT,0.16
22,TGAGACACGTGGAGAG,0.03
23,AGGGACACGTGCCTGG,-0.04

row,Sequence,relative binding free energy [kcal/mol]
1,GGGTGCACGTGGCGGT,-0.04
2,GTGTACACGTGTGTAG,0.1
3,CGGGGCACGTGTTTAA,-0.09
4,AGGTTCACGTGCATGA,0.33
5,AATTGCACGTGCTTGG,-0.06
6,TATAACACGTGGCGGT,-0.04
7,TGTGTCACGTGTGTCC,0.08
8,GTGTGCACGTGGACAG,0.03
9,GTCGGCACGTGGTTGC,-0.11
10,CTGCTCACGTGGGCGT,0.16
11,AATCGCACGTGGTGGA,-0.07
12,TGTAACACGTGACTTG,0.13
13,TGATGCACGTGGGGCC,-0.13
14,GACGGCACGTGGGGAT,-0.23
15,TGCGTCACGTGAGCGG,0.16
16,TATCTCACGTGAGGAG,0.37
17,GTATTCACGTGTCATG,0.16
18,CGGTTCACGTGAATTG,0.3
19,TGTGTCACGTGGCTGA,0.02
20,TCCGGCACGTGGGGTC,-0.21
21,ACGGGCACGTGTGTAA,-0.04
22,GTTTCCACGTGAGTGA,0.34
23,GTCGGCACGTGTGGGG,0.09
